Experimental data: patent US12599649B2, “Bioactive polypeptides for improvements in plant protection, growth and productivity” (priority 2017, dated 2026)

Test system: soybean
Experiment: Soybean yield in Paraguay trials infected with Phakopsora pachyrhizi and Cercospora kikuchii (Example 56)
Type: in vivo

## RHPP: root hair promoting polypeptide derived from Glycine max (GGIRAAPTGNER; Glycine max)
150 mL/Ha
  yield increase vs untreated control: 294.2 kg/Ha
300 mL/Ha
  yield increase vs untreated control: 506.8 kg/Ha
